# The antibiotic and cytotoxicity screens of Wong et al. (2023)
# This is one part of the list.
# Key:
# HSkMC = human skeletal muscle cells; test: cytotoxicity call (relative viability < 0.9); details: 10 µM
# HepG2 = test: cytotoxicity call (relative viability < 0.9); details: 10 µM
# S. aureus RN4220 = test: growth inhibition call (relative growth <= 0.2); details: 50 µM
SMILES,cytotoxicity call (HSkMC),cytotoxicity call (HepG2),growth inhibition call (S. aureus RN4220)
C[C@@H]1CN([C@H](C)CO)C(=O)c2cccc(NC(=O)Nc3ccccc3)c2O[C@H]1CN(C)S(C)(=O)=O,inactive,inactive,inactive
CCOC(=O)C1CCN(C(=O)CNC(=O)Cc2n[nH]c(=O)c3ccccc23)CC1,inactive,inactive,inactive
C[C@@H]1CCCCO[C@H](CN(C)S(=O)(=O)c2ccc(F)cc2)[C@H](C)CN([C@@H](C)CO)C(=O)c2cc(NC(=O)Nc3ccc(C(F)(F)F)cc3)ccc2O1,inactive,active,inactive
COc1ccc(S(=O)(=O)N(C)C[C@@H]2Oc3ccc(NC(=O)NC(C)C)cc3CC(=O)N([C@@H](C)CO)C[C@H]2C)cc1,inactive,inactive,inactive
C[C@@H]1CN([C@@H](C)CO)C(=O)c2cc(Br)cnc2O[C@H]1CN(C)S(=O)(=O)c1ccccc1,inactive,inactive,inactive
O[C@@H]1CCCC[C@H]1O,inactive,inactive,inactive
O=C(C[C@H]1CC[C@@H]2[C@H](COC[C@@H](O)CN2C(=O)Nc2ccc(Cl)cc2)O1)NC1Cc2ccccc2C1,inactive,inactive,inactive
CO[C@@H]1CN(C)C(=O)c2cc(NS(C)(=O)=O)ccc2OC[C@@H](C)N(C(=O)C2CCCCC2)C[C@H]1C,inactive,inactive,inactive
C[C@@H]1CCCCO[C@H](CN(C)Cc2ccc3c(c2)OCO3)[C@@H](C)CN([C@@H](C)CO)C(=O)c2cc(NC(=O)Nc3cccc4ccccc34)ccc2O1,inactive,active,inactive
O=C(OC1Cc2c(O)cc(O)cc2OC1c1cc(O)c(O)c(O)c1)c1cc(O)c(O)c(O)c1 (stereo not given),inactive,inactive,inactive
COc1ccc(NC(=O)Nc2ccc3c(c2)C(=O)N([C@H](C)CO)C[C@H](C)[C@@H](CN(C)S(=O)(=O)c2c(C)noc2C)OCCCC[C@@H](C)O3)cc1,inactive,inactive,inactive
COc1ccc(CN(C)C[C@@H]2Oc3ccc(NS(C)(=O)=O)cc3CC(=O)N([C@@H](C)CO)C[C@@H]2C)cc1,inactive,inactive,inactive
CCC[C@@H](O)C#Cc1cnc2c(c1)C(=O)N([C@H](C)CO)C[C@H](C)[C@H](CN(C)S(C)(=O)=O)O2,inactive,inactive,inactive
O=C(C[C@@H]1C[C@@H]2c3cc(NS(=O)(=O)c4ccc(F)cc4)ccc3O[C@@H]2[C@H](CO)O1)N1CCOCC1,inactive,inactive,inactive
Nc1nc2ccc(OC(F)(F)F)cc2s1,inactive,inactive,inactive
